# The source gives no read counts; variants with many changes may rest on few reads.
# B1: OR4K15 (parent)
# chain: GUUAACGGUCAUAGGCCAUGGAAACUAGGAGCACCAUUUCGCUGCCAGUGAAGAAAUGAACAAAGAAAAUCUGGGCCAGGCAGGCAUCAAAAGAAAUAGUCUUGCGCUCAACCAGAAAGUCUGUAAUCAUUUUAAGGGUA
# Variants of: B1
# Assay: self-cleavage, relative activity (ratio to wild type); higher = more cleavage; in vitro, sequencing; the parent is a self-cleaving ribozyme
row,Variant,self-cleavage
1,GUUAACGGUCAUAGGCCAUGGAAACUAGGAGCACCAUUUCGCUGCCAGUGAAGAAAUGGACAAAGAAAAUCUGGGCCAGGCAGGCAUCAAAAGAGAUAGUCUUGCGCUCAGCCAGAAAGUCUGUAAUCAUUUUAAGGGUA,0.04
2,GUUAACGGUCAUAGGCCAUGGAAACUAGGAGCACCAUUUCGCUGCCAGUGAAGAAAUGGACAAAGAAAAUCUGGGCCAGGCAGGCAUCAAAGGAAAUAGUCUUGCGCCCAACCAGAAAGUCUGUAAUCAUUUUAAGGGUA,0.01
3,GUUAACGGUCAUAGGCCAUGGAAACUAGGAGCACCAUUUCGCUGCCAGUGAAGAAAUGGACAAAGAAAAUCUGGGCCAGGCGGGCAUCAAAAGAAAUAGUCUUGCGCUCAACCAGAAAGUCUGUAAUCAUUUUAAGGGUC,0.76
4,GUUAACGGUCAUAGGCCAUGGAAACUAGGAGCACCAUUUCGCUGCCAGUGAAGAAAUGGACAAAGAAAAUCUGGGCCAGGCAGGCAUCAAAAGAGAUAGUCUUGCGCUCAACCAGAAUGUCUGUAAUCAUUUUAAGGGUA,1.27
5,GUUAACGGUCAUAGGCCAUGGAAACUAGGAGCACCAUUUCGCUGCCAGUGAAGAAAUGGACAAAGAAAAUCUGGGCCAGGCAGGCAUCAAAAGAAACAGUCUUGCGCUCAACCAGAAAGUCUGAAAUCAUUUUAAGGGUA,0.48
6,GUUAACGGUCAUAGGCCAUGGAAACUAGGAGCACCAUUUCGCUGCCAGUGAAGAAAUGGACAAAGAAAAUCUAGGCCGGGCAGGCAUCAAAAGAGAUAGUCUUGCGCUCAACCAGAAAGUCUGUAAUCAUUUUAAGGGUA,0.33
7,GUUAACGGUCAUAGGCCAUGGAAACUAGGAGCACCAUUUCGCUGCCAGUGAAGAAAUGGACAAAGAAAAUCUGGGCCAGGCAGGCAUCAAAAGAAAUAGUCUUGCGCUCAACCGGAAGGUCUGCAAUCAUUUUAAGGGUA,0.01
8,GUUAACGGUCAUAGGCCAUGGAAACUAGGAGCACCAUUUCGCUGCCAGUGAAGAAAUGGACAAAGAAAAUCUGGGCCAGGCAGGCAACAAAAGAAAUAGUCUUGCGCUCAACCAGAAAGUCCGUAAUCAUUUUAAGGGUA,0.78
9,GUUAACGGUCAUAGGCCAUGGAAACUAGGAGCACCAUUUCGCUGCCAGUGAAGAAAUGGACAAAGAAAAUCUGGGCCAGGCAGGCAUCAAAAGAAAUAGUCUUGCGCUCAACCAGAAGGUCUGUAACCAUUUUAAGGGUA,0.49
10,GUUAACGGUCAUAGGCCAUGGAAACUAGGAGCACCAUUUCGCUGCCAGUGAAGAAAUGGACAAAGAAAAUCUGGGCCAGGCAGGCAUCAAGAGAAAUAGUCUUGCGCUCAACCAGGAAGUCUGUAAUCAUUCCAAGGGUA,0.18
11,GUUAACGGUCAUAGGCCAUGGAAACUAGGAGCACCAUUUCGCUGCCAGUGAAGAAAUGGACAAAGAAAAUCUGGGCCAGGCAGGCAUCAAAAGAAGUAGUCCUGCGCUCAACCAGAAAGUCUGUAAUCAUUUUAAGGGUA,1.62
12,GUUAACGGUCAUAGGCCAUGGAAACUAGGAGCACCAUUUCGCUGCCAGUGAAGAAAUGGACAAAGAAAAUCUGGGCCAGGCAGGCAUCAAAAGGGAUAGUCUUGCGCUCAACCAGAAAGUCUGUAAUCAUUUUAAGGGUA,0.74
13,GUUAACGGUCAUAGGCCAUGGAAACUAGGAGCACCAUUUCGCUGCCAGUGAAGAAAUGGACAAAGAAAAUCUAGGCCAGGCAGGCAUCAAAAGAAAUAGCCUUGCGCUCAACCAGAAGGUCUGUGAUCAUUUUAAGGGUA,0.01
14,GUUAACGGUCAUAGGCCAUGGAAACUAGGAGCACCAUUUCGCUGCCAGUGAAGAAAUGGACAAAGAAAAUCUGGGCCAGGCAGGUAACAAAAGAAAUAGUCUUGCGCUCAACCAGAAAGUCCGUAAUCAUUUUAAGGGUA,0.65
15,GUUAACGGUCAUAGGCCAUGGAAACUAGGAGCACCAUUUCGCUGCCAGUGAAGAAAUGGACAAAGAAAAUCUGGGCCAGGCAGGCAUCAGAAGAAAUAGUCUUGCGCUCAACCAGAAAGUCUGUAAUCAUCUUAAGGGUA,1.21
16,GUUAACGGUCAUAGGCCAUGGAAACUAGGAGCACCAUUUCGCUGCCAGUGAAGAAAUGGACAAAGAAAAUCUGGGCCAGGCAGGCAUCAAAAGAAAUAGUCUUGCGCUCGACCAGAAGGUCUGUAAUCAUUUUAAGGGUA,0.13
17,GUUAACGGUCAUAGGCCAUGGAAACUAGGAGCACCAUUUCGCUGCCAGUGAAGAAAUGGACAAAGAAAAUCUGGGCCAGGCUGGCAUCAAAAGAAAUUGUCUUGCGCUCAACCAGAAAGCCUGUAAUCAUUUUAAGGGUA,0.14
18,GUUAACGGUCAUAGGCCAUGGAAACUAGGAGCACCAUUUCGCUGCCAGUGAAGAAAUGGACAAAGAAAAUCUGGGCCAGGCUGGCAUCAAAAGAAAUAGUCUUGCGCUCAACCAGAAAGUCUGUAAUCAUUAUAAGGGUA,0.34
19,GUUAACGGUCAUAGGCCAUGGAAACUAGGAGCACCAUUUCGCUGCCAGUGAAGAAAUGGACAAAGAAAAUCAGGGCCAGGCAGGCAUCAAAAGAAAUAGUCGUGCGCUCAACCAGAAAGUCUGUAAUCAUUUUAAGGGUA,0.12
20,GUUAACGGUCAUAGGCCAUGGAAACUAGGAGCACCAUUUCGCUGCCAGUGAAGAAAUGGACAAAGAAAAUCUGGGCCAGGCAGGCAUCAAAAGAAAUAGUCUUGCGCUCAGCCAGAGAGUCUGUAAUCAUUUUAAGGGUA,0.02
21,GUUAACGGUCAUAGGCCAUGGAAACUAGGAGCACCAUUUCGCUGCCAGUGAAGAAAUGGACAAAGAAAAUCUGGGCCAGGCAGGCAUCAAAAGAAGCAGUCUUGCGCUCAACCAGAAAGUCUGUAAUCAUUUUAAGGGUA,1.24

row,Variant,self-cleavage
1,GUUAACGGUCAUAGGCCAUGGAAACUAGGAGCACCAUUUCGCUGCCAGUGAAGAAAUGGACAAAGAAAAUCUGGGCCAGGCAGGCACCAAAAGAGAUAGUCUUGCGCUCAACCAGAAAGUCUGUAAUCAUUUUAAGGGUA,0.82
2,GUUAACGGUCAUAGGCCAUGGAAACUAGGAGCACCAUUUCGCUGCCAGUGAAGAAAUGGACAAAGAAAGCCUGGGCCAGGCAGGCAUCAAAAGAAAUAGUCUUGCGCUCAACCAGAAAGUCUGUAAUCAUUUUAAGGGUA,0.24
3,GUUAACGGUCAUAGGCCAUGGAAACUAGGAGCACCAUUUCGCUGCCAGUGAAGAAAUGGACAAAGAAAGUCUGGGCCAGGCAGGCGUCAAAAGAAAUAGUCUUGCGCUCAACCAGAAAGUCUGUAAUCAUUUUAAGGGUA,1
4,GUUAACGGUCAUAGGCCAUGGAAACUAGGAGCACCAUUUCGCUGCCAGUGAAGAAAUGGACAAAGAAAAUCUGGGCCAGGCAGGCUUCAGAAGAAAUAGUCUUGCGCUCAACCAGAAAGUCUGUAAUCAUUUUAAGGGUA,0.7
5,GUUAACGGUCAUAGGCCAUGGAAACUAGGAGCACCAUUUCGCUGCCAGUGAAGAAAUGGACAAAGAAGAUCCGGGCCAGGCAGGCAUCAAAAGAAAUAGUCUUGCGCUCAACCAGAAAGUCUGUAAUCAUUUUAAGGGUA,0.21
6,GUUAACGGUCAUAGGCCAUGGAAACUAGGAGCACCAUUUCGCUGCCAGUGAAGAAAUGGACAAAGAAAAUCUGGGCCAGGCAGGCAUCAGAAGAAAUAGUCUCGCGCUCAACCAGAAAGUCUGUAAUCACUUUAAGGGUA,0.47
7,GUUAACGGUCAUAGGCCAUGGAAACUAGGAGCACCAUUUCGCUGCCAGUGAAGAAAUGGACAAAGAAAAUCUGGGCCAGGCAGGCAUCAAAAGUAGUAGCCUUGCGCUCAACCAGAAAGUCCGUAAUCAUUUUAAGGGUA,1.92
8,GUUAACGGUCAUAGGCCAUGGAAACUAGGAGCACCAUUUCGCUGCCAGUGAAGAAAUGGACAAAGAAAAUCUGGGCCAGGCAGGCAUCAAAAGGAAUAGUCUCGCGCUCAACCAGAAAGUCUGUAAUCAUUUUAAGGGUA,0.84
9,GUUAACGGUCAUAGGCCAUGGAAACUAGGAGCACCAUUUCGCUGCCAGUGAAGAAAUGGACAAAGAAAAUCUGGGCCAGGCAGGCAUCGAAAGAAAUAGUCUUGCGCUCAACCAGAAAGUCUGUAAUCAUUCUAAGGGUA,1.86
10,GUUAACGGUCAUAGGCCAUGGAAACUAGGAGCACCAUUUCGCUGCCAGUGAAGAAAUGGACAAAAAAAAUCUGGGCCAGGCAGGCAUCAAAAGAAAUAGUCUUGCGCUCAUCCAGAAAGUCUGUAAUCAUUUUAAGGGUA,0.05
11,GUUAACGGUCAUAGGCCAUGGAAACUAGGAGCACCAUUUCGCUGCCAGUGAAGAAAUGGACAAAGAAAAUCUGGGCCAGGCGGGCAUCAAAAGGAAUAGUCUUGCGCUCAACCAGAAAGUCUGUAAUCAUUUUAAGGGUA,0.63
12,GUUAACGGUCAUAGGCCAUGGAAACUAGGAGCACCAUUUCGCUGCCAGUGAAGAAAUGGACAAAGAAGAUCUGGGCCAGGCAGGCAUCUAAAGAAAUAGUCUUGCGCUCAACCAGAGAGUCUGUAAUCAUCUUAAGGGUA,1.06
13,GUUAACGGUCAUAGGCCAUGGAAACUAGGAGCACCAUUUCGCUGCCAGUGAAGAAAUGGACAAAGAAAAUCUGGGCCAGGCAGGCAUCAAAAGAAGUAGUCUUGCGCUCAACCAGAGAGUCUGUAAUCAUUAUAAGGGUA,2.3
14,GUUAACGGUCAUAGGCCAUGGAAACUAGGAGCACCAUUUCGCUGCCAGUGAAGAAAUGGACAAAGAUAAUCUGGGCCAGGCAGGCAUCAAAAGAAAUAGUCUUGCGCUCAACCAGAAAGUCUGUACUCAUUUUAAGGGUA,1.65
15,GUUAACGGUCAUAGGCCAUGGAAACUAGGAGCACCAUUUCGCUGCCAGUGAAGAAAUGGACAAAGAACAUCUGGGCCAGGCAGGCAUCAAAAGAAAUAGUCUUGCGCUCAACCAGAAGGUCUGUAAUCAUUUUAAGGGUA,1.51
16,GUUAACGGUCAUAGGCCAUGGAAACUAGGAGCACCAUUUCGCUGCCAGUGAAGAAAUGGACAAAGAAGAUCUGGGCCAGGCAGGCAUCAAAAGAAAUAGUCUUGCGCUCAACCAGAAAGCCUGUAAUCAUUAUAAGGGUA,0.2
17,GUUAACGGUCAUAGGCCAUGGAAACUAGGAGCACCAUUUCGCUGCCAGUGAAGAAAUGGACAAAGAAAAUCUGGGCCAGGCAGGCAUCAAAAGAAAUAGUCUUGCGCUCAACCAGGAAGACUGUAAUCAUUUUAAGGGUA,0.41
18,GUUAACGGUCAUAGGCCAUGGAAACUAGGAGCACCAUUUCGCUGCCAGUGAAGAAAUGGACAAAGAAAAUCUGGGCCAGGCGGGCAUCAAAAGAAAUAGUCAUGCGCUCAACCAGAAAGUCUGUAAUCAUUUUAAGGGUA,0.32
19,GUUAACGGUCAUAGGCCAUGGAAACUAGGAGCACCAUUUCGCUGCCAGUGAAGAAAUGGACAAAGAAAAUCUGGGCCAGGCAGGCAUCAGAAGAAAUAGUCUUGCGCUCAACCAGGAAGUCUGUAAUCAUUUUAAGGGUA,0.46
20,GUUAACGGUCAUAGGCCAUGGAAACUAGGAGCACCAUUUCGCUGCCAGUGAAGAAAUGGACAAAGAAAAUCUGGGCCAGGCAGGCAUCAAAGGAAAUAGUCUUGCGCUCAACCAGAAAGUCUGUAACCAUUUUAAGGGUA,0.98
